Measurements from paper PMC6919601, “Identification of Plasmodium dipeptidyl aminopeptidase allosteric inhibitors by high throughput screening” (PLoS ONE, 2019).
Values joined by “and” are separate entries in the source; they are usually repeats but may differ in a detail not shown here. Identical values can stand only once. Among all 110,000 compounds or so, about 230 (0.21%) showed an effect of 50% or more. Some of the results follow.

What follows are molecules tested against DPAP1 (Plasmodium falciparum, UniProt Q8IIJ9) (assay: primary screen, percent inhibition; read by cleavage of a fluorogenic dipeptide substrate; higher = more effect of the substance).
Design: species or system P. falciparum D10 trophozoite lysates; single well
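Also: 30 min substrate incubation versus DMSO and 10 µM JCP410 controls.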

DPAP1, sequence (Q8IIJ9 whole entry, looked up): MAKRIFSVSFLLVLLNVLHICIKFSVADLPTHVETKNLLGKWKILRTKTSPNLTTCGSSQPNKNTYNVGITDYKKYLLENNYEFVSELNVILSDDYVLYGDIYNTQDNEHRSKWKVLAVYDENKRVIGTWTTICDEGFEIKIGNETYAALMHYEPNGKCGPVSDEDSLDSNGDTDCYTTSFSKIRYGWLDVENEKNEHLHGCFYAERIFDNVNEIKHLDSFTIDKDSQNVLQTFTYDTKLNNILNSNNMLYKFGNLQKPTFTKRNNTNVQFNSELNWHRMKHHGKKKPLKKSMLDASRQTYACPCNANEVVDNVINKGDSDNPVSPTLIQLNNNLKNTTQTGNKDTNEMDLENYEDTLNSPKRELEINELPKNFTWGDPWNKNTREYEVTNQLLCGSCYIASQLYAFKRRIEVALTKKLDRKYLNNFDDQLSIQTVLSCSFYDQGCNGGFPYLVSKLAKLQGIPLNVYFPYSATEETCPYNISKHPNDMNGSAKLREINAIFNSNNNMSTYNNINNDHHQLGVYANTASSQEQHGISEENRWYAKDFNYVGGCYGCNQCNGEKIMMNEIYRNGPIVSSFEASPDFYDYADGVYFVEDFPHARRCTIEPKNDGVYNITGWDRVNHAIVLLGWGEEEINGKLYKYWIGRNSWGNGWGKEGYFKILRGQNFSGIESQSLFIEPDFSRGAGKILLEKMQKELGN

Structure (SMILES) | % Inhibition @ 10 uM
O=C(O)c1ccc(CN2CCc3ccccc3C2)cc1 | 0.847%
Cn1nnnc1SCCNCc1cc(Cl)ccc1OCc1ccccc1F | -0.204%
COc1ccc(NS(=O)(=O)c2ccc(F)cc2)c(OC)c1 | 0.658%
Cc1ccc2onc(CNC(=O)N3CCN(C(=O)c4ccco4)CC3)c2c1 | 5.55%
Cc1c(CCC(C)C)c(=O)oc2cc(OCC(N)=O)ccc12 | -2.21%
CCN1CCN(Cc2cccc(C(F)(F)F)c2)CC1 | 1.63%
CN1CCN(CC#CC2(O)CCCCC2)CC1 | 3.44%
CCN(CC)CCCNC(=O)c1cc2c(=O)oc3ccc(C)cc3c2s1 | -0.646%
Cc1[nH]c2ccccc2c1CCNC(=O)c1ccccc1F | -5.23%
O=C(NC1=C(C(=O)c2ccccc2)N(Cc2ccccc2)S(=O)(=O)c2ccccc21)c1ccccc1 | -5.1%
CC(=O)N1CCC2(CC1)OC(=O)C(C)=C2C(=O)N1CCN(C)CC1 | -1.86%
Cc1c(-c2nc(-c3ccc4c(c3)OCO4)no2)nnn1-c1ccccc1C(F)(F)F | 8.59%
CC(NC(=O)C12CC3(C)CC(C)(CC(C)(C3)C1)C2)C(=O)O (stereo not drawn) | -2.45%
COc1cc2ncc(S(=O)(=O)c3ccccc3)c(NCc3ccc(C)cc3)c2cc1OC | -2.34%
CCCCCCNCc1c(F)cccc1Cl | 0.658%
COc1ccc(CNC(=O)CCn2ccc3cc(S(=O)(=O)N4CCCC4)ccc32)cc1 | 3.99%
Cc1ccc2sc(N(CCN(C)C)C(=O)c3ccco3)nc2c1C | 2.22%
COc1cccc(C2c3c(oc4cc(C)c(C)cc4c3=O)C(=O)N2c2ccccn2)c1 (stereo not drawn) | -3.13%
O=C(Nc1ccc(CN2CCCCC2)cc1)c1cc2ccccc2o1 | -2.29%
O=C1/C(=C/c2ccc(F)cc2)CS/C1=C\c1ccc(F)cc1 | 1.76%
CC(C)(C)Oc1ncc(-c2cccs2)c(OC(C)(C)C)n1 | 0.0265%
COCC1=Nc2ncnn2C(c2ccc(Cl)cc2)/C1=C(/O)OC (stereo not drawn) | -1.62%
COc1ccc(Br)cc1CNC(=O)Cn1c(=O)cc(C(F)(F)F)c2c(C)nn(C)c21 | -0.298%
COc1cccc(C2CC(=O)N=C(NC(=O)c3cccnc3)N2)c1OC (stereo not drawn) | -4.76%
COc1ccc(Cl)cc1-n1cc(-c2ccccc2)nc1SCC(=O)Nc1nccs1 | 2.24%

Structure (SMILES) | % Inhibition @ 10 uM
N#CCNC(=O)[C@@H]1CCCC[C@@H]1CSc1nc2ccccc2o1 | -4.72%
CC(C)c1ccc(OCC(=O)Nc2ccc(S(N)(=O)=O)cc2)cc1 | -1.82%
O=C(c1cnn2c1NC(c1ccc(Br)cc1)CC2C(F)(F)F)N1CCCCC1 (stereo not drawn) | -2.19%
N#CCNC(=O)[C@@H](CSCC1c2ccccc2-c2ccccc21)NC(=O)OCc1ccccc1 | -2.02%
CC(NC(=O)C1CCN(c2ncnc3c2nc2n3CCCCC2)CC1)c1ccccc1 (stereo not drawn) | 2.59%
c1nc(NC2CCCCC2)c2nc3n(c2n1)CCCCC3 | 4.68%
CSc1ccc(/C=C2/NC(=O)N(Cc3ccc(F)cc3)C2=O)cc1 | -0.105%
O=C(C(c1ccccc1)N1Cc2ccccc2C1=O)N1CC=C(c2ccccc2)CC1 (stereo not drawn) | 10.6%
O=C(c1cccc(C(=O)N2CCN(c3ccccc3)CC2)c1)N1CCN(c2ccccc2)CC1 | 1.87%
Cc1nc(Nc2ccccn2)sc1-c1ccccc1 | -4.42%
COc1ccc2[nH]c(-c3ccccc3)nc2c1 | -7.87% and -0.216%
COc1cccc(C2C(C#N)=C(N)Oc3[nH]nc(C)c32)c1OCc1ccccc1Cl (stereo not drawn) | 4.67%
CCN(CC)CC(=O)Nc1csc2nc(C)cc(C)c12 | -1.82%
CCN(CCCNC(=O)c1cc(-c2ccccc2)c(N2CCOCC2)s1)Cc1ccccc1 | -8.04%
Cc1nn2c(=O)c3c4c(sc3nc2n(-c2ccccc2)c1=O)COC(C)(C)C4 | -4.15%
COc1ccc(C(=O)NC(C)C(c2cccs2)N2CCN(C)CC2)cc1 (stereo not drawn) | -1.08%
CC1(C(=O)O)C2CCCCC2=C2CCCCC2C1C(=O)O (stereo not drawn) | -0.216%
CCN(CC)CCCOC(=O)c1ccc(O)c(OC)c1 | -7.15%
O=C(Cn1nnc(-c2cccs2)n1)N1CCOCC1 | -3.34%
C[C@@H](C[C@H](NC(=O)c1ccc(-c2ccccc2Cl)cc1)C(=O)N[C@H](/C=C/S(=O)(=O)c1ccccc1)CCc1ccc(O)cc1)c1ccccc1 | 2.87%
COc1ccc(CN2CCN(c3ccc(F)cc3)CC2)c(OC)c1 | -3.56%
CCCOC(=O)c1ccc(OCC(O)Cn2c(C)nc3ccccc32)cc1 (stereo not drawn) | -2.91%
N#CC1=C(N)Oc2cc(O)ccc2C1c1ccccc1C(F)(F)F (stereo not drawn) | 1.4%
O=C1CC(C(=O)N(c2ccccc2)c2ccccc2)C(c2ccccc2)O1 (stereo not drawn) | 0.716%
Cc1ccc(C(=O)N/C(=C\c2ccco2)C(=O)NCCN2CCCCC2)cc1C | -3.06%

Structure (SMILES) | % Inhibition @ 10 uM
N#Cc1cc2c(nc1SCC(=O)Nc1ccc(S(=O)(=O)Nc3nccs3)cc1)CCCCC2 | 2.36%
COCCNC(=O)c1cc2c(-c3ccccc3F)nn(C)c2s1 | -3.23%
COCC(C)NCc1ccc(F)cc1 (stereo not drawn) | 5.04%
CCN(CC)CCCNC(=O)C1CCCN(c2nnc(C)c3c(C)n(-c4ccc(Cl)cc4)nc23)C1 (stereo not drawn) | 6%
CCOc1ccc(CNCc2c(C(=O)O)n(Cc3ccccc3C)c3cc(OC)ccc23)cc1 | -3.46%
O=C(CSC1=NC(=O)C(Cc2ccccc2)C(=O)N1)Nc1ncccn1 (stereo not drawn) | -4.6%
Oc1c(Br)cc(CN2CCCCC2)c2cccnc12 | -3.09%
O=C1CC(c2nc3cc4ccccc4cc3[nH]2)CN1c1ccc(Cl)cc1 (stereo not drawn) | -2.8%
O=C(NCc1ccc(F)cc1)C(Cc1ccccc1)n1cccc1 (stereo not drawn) | -0.692%
COc1ccc(/C=C/c2nn3c(-c4ccccc4Cl)nnc3s2)cc1 | 3.38%
CCOC(=O)c1c(NC(=O)c2ccccc2Cl)sc2c1CCCC2=O | -5.08%
Cc1ccc(Cn2nnc3c(=O)n(CC(=O)c4ccc(Cl)cc4)cnc32)cc1 | 4.41%
COc1cccc(OCCNC(=O)Cc2cccc3ccccc23)c1 | -3.76%
Cc1cc(C)c2c(-n3cccc3)c(C(=O)N3CCN(c4ccccn4)CC3)sc2n1 | 0.623%
Cc1c(CN2CCN(c3ccccn3)CC2)c(=O)n(-c2ccccc2)n1C | 2.99%
CCOC(=O)c1c(NC(=O)CSc2nnnn2-c2ccccc2)sc2c1CCCCC2 | 3.43%
CCC(Cc1ccccc1)NC(=O)c1ccc2nc(N3CCOCC3)sc2c1 (stereo not drawn) | 0.828%
O=C(Nc1cccc(Cl)c1)C(O)c1ccccc1 (stereo not drawn) | 0.847%
O=C(CCCOc1ccc(Cl)cc1Cl)n1nnc2ccccc21 | -4.13%
COc1cc(OC)c(OC)cc1CN1CCc2ccccc2C1 | 8.32%
O=C(c1ccc(N2CCN(C(=O)c3cccs3)CC2)cc1)c1cccc(F)c1 | 5.29%
NC(CC(=O)O)c1ccccc1 (stereo not drawn) | 0.503%
Cc1cc(C)c(S(=O)(=O)Nc2ccccc2C#N)c(C)c1 | -1.42%
COc1ccc(-c2c(C#N)c(N)nc3c2CCCC3)cc1COCC(F)(F)F | -0.67%
N#C/C(=C\c1ccccc1C(F)(F)F)C(N)=S | -3.78%

Structure (SMILES) | % Inhibition @ 10 uM
Oc1c2cnnc-2nc2ccccn12 | -9.37%
CCCNC(=O)c1cc(-c2ccc(C)o2)nc2ccccc12 | 0.993%
CCOC(=O)C1=C(CC)OC(N)=C(C#N)C1c1ccc(Cl)c(Cl)c1 (stereo not drawn) | 0.317%
COCCNC(=O)CSc1nc(-c2ccc(F)cc2)cc(C(F)(F)F)n1 | 2.46%
COc1ccc(OC)c(NC(=O)c2ccccc2OC)c1 | 6.79%
CCNc1nc(NCC)nc(-n2nc(C)cc2C)n1 | 3.76%
CCOc1ccc(C2c3c(oc4ccccc4c3=O)C(=O)N2c2nncs2)cc1OC (stereo not drawn) | -5.24%
O=C(Nc1ccccc1-n1cccc1)c1cccs1 | 1.28%
Brc1ccccc1OCCCCN1CCCC1 | 3.35%
O=C(Nc1ccc(Br)cc1)c1ccc(Cl)c([N+](=O)[O-])c1 | -5.32%
CCOC(=O)c1cnn2c(C(F)(F)F)cc(-c3ccccc3)nc12 | 6.09%
CC1=C(c2ccc(C)c(C)c2)S(=O)(=O)N(Cc2ccc(C(=O)NCCc3ccccc3)cc2)C1=O | -1.6%
COc1ccc(C2C=C(c3ccc(Br)cc3)Nc3ncnn32)cc1OC (stereo not drawn) | 4.05%
COc1cc(OC)cc(C(=O)Nc2ccccc2Cl)c1 | 0.956%
CC(Cc1cccc(C(F)(F)F)c1)N1CCN(C)CC1 (stereo not drawn) | -1.75%
CC1(C)Cc2c(ccc3ccccc23)/C(=C/C(=O)N2CCCCCC2)N1 | 0.215%
COc1ccccc1C(=O)Nc1ccc(S(=O)(=O)Nc2onc(C)c2C)cc1 | 0.873%
COc1ccc(/N=C2\SC(CC(=O)Nc3cccc(C)c3C)C(=O)N2C)cc1 (stereo not drawn) | 2.65%
CC(=O)C1=NN(c2ccccc2C)C2C(=O)N(c3ccccc3Cl)C(=O)C12 (stereo not drawn) | -1.28%
CCCCc1ccc(C2C(C#N)=C(N)OC3=C2C(=O)CC(C)(C)C3)s1 (stereo not drawn) | -3.42%
Cc1nn(CCCC(=O)N2CCN(Cc3ccc4c(c3)OCO4)CC2)c(=O)c2cc3sccc3n12 | 3.4%
c1ccc(C(CCNc2ncnc3[nH]cnc23)c2ccccc2)cc1 | -11.3%
Brc1ccc2[nH]c3c(c2c1)CCCC3NCCc1ccccc1 (stereo not drawn) | -0.0404%
Cn1c(C(=O)N2CCCC(C(=O)N3CCc4ccccc4C3)C2)cc2sccc21 (stereo not drawn) | -3%
